# Laboratory results as given in PubChem BioAssay AID2546 (National Center for Advancing Translational Sciences (NCATS), 2010).
# Hit rate of the full screen: of about 310,000 compounds, about 11,000 (3.5%) were called active. Inconclusive results, whose numbers are uncertain, are shown with a selection of clear calls. Calls follow the shape of the dose curve; as a rule, active = well fitted inhibition curve with a large enough effect; inconclusive = small, poorly fitted or top-dose-only effect, or effect the other way; inactive = flat fitted curve, though single readings scatter. No potency is given beside an inconclusive call; the fits are too rough.
# Experiment: VP16 counterscreen qHTS for inhibitors of ROR gamma transcriptional activity;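 also: Gal4-VP16 expression switched on by copper sulfate through the metallothionein promoter; nearly all actives have a fitted effect of over 50% in size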
# Conditions: Drosophila S2 Gal4-VP16 UAS-luciferase, luminescence, 20 h; activity, negative = inhibition: at 53.6 µM (top of the series)
# % is scaled to controls: 0 for no effect and ±100 for the full control effect; potency is read from the fitted curve at half-maximal effect; tags tell the direction and shape of the fitted curve.
Structure (SMILES),Potency,"activity, negative = inhibition"
CN(CC(=O)Nc1ccccc1Br)c1ncnc2sccc12,"inconclusive [inhibitor, single point]",
c1ccc(Sc2ncnc3ccccc23)cc1,"inconclusive [activator, single point]",
CCCC(=O)NC(c1ccccc1)c1ccc2cccnc2c1O (configuration not stated),"inconclusive [inhibitor, single point]",
COc1cccc(/C=N/NC(=O)C(=O)N2CCCCCC2)c1O,active: 10 µM,
CC1(C)Nc2ccc(O)cc2-c2c1ssc2=S,"inconclusive [inhibitor, single point]",
COc1ccc(CNC(=O)c2ccc3ccccc3n2)cc1OC,"inconclusive [inhibitor, single point]",
COc1cccc(/C=N/n2c(-c3ccco3)nc3ccccc3c2=O)c1,"inconclusive [activator, single point]",
CN(Cc1ccccc1)C(=O)c1cc2ccccc2o1,,inactive: 20.8%
NC(=O)/C=C/C(=O)Nc1ccc(Cl)cc1,"inconclusive [inhibitor, single point]",
CCOc1ccc(NC(=O)N(CCN2CCOCC2)Cc2ccc3c(c2)CCCN3CC)cc1,,inactive: -1.87%
CC(C)=N/N=C1/NC(=O)C(Cc2ccccc2)S1 (configuration not stated),active: 2.82 µM,
CC1(c2ccc3noc(-c4cccc(F)c4)c3c2)OCCO1,"inconclusive [inhibitor, full curve, poor fit]",
COC(=O)c1ccccc1Sc1ncnc2onc(C)c12,"inconclusive [inhibitor, single point]",
C=CCOc1c(Cl)cc(CNc2nccs2)cc1OC,"inconclusive [inhibitor, single point]",
CC1=C(c2ccc(F)cc2)[N+](=O)C(C)(C)N1[O-],"inconclusive [inhibitor, full curve]",
Cc1[nH]n(-c2ccccc2)c(=O)c1/C=C1\C=NN=C1c1ccccc1,"inconclusive [inhibitor, single point]",
Cc1cc(C(=O)Nc2cccc3ccccc23)c(C)o1,,inactive: -10.1%
CCOc1ccc2c(c1)ncn2Cc1ccccc1,,inactive: 0.856%
C=CCNC(=S)NNc1nc(Nc2ccccc2)nc(N2CCCCC2)n1,"inconclusive [inhibitor, single point]",
O=[N+]([O-])c1cccc(/C=N\N=C2c3ccccc3-c3ccccc32)c1O,active: 20 µM,
CN1c2ccccc2C(O)=C(C(=S)Nc2ccc(F)c(Cl)c2)S1(=O)=O,"inconclusive [inhibitor, single point]",
O=C(C1CCC1)N1CCc2cc(S(=O)(=O)NCCN3CCN(c4ccccc4F)CC3)ccc21,"inconclusive [inhibitor, single point]",
CC(=O)/C(=C/N(C)C)C(=O)Nc1ccc(Cl)cc1Cl,"inconclusive [inhibitor, single point]",
CC(C)CNC(=S)NC1CC2CCC(C1)N2Cc1ccccc1 (configuration not stated),"inconclusive [inhibitor, single point]",

Structure (SMILES),Potency,"activity, negative = inhibition"
O=C(Nc1ccccc1)Nc1ncc([N+](=O)[O-])s1,"inconclusive [inhibitor, single point]",
c1ccc(-n2ncc3c(NCc4cccnc4)ncnc32)cc1,active: 1.41 µM,
CCN(CC)CCCNC(=S)N(Cc1cccnc1)Cc1cc2cccc(C)c2[nH]c1=O,,inactive: 3.48%
COc1cccc(NC(=O)C2CCN(S(=O)(=O)c3ccc4c(c3)NC(=O)C(C)S4)CC2)c1 (configuration not stated),"inconclusive [inhibitor, partial curve]",
CC1(C)OC2OC(C(=O)N/N=C/c3cc(Br)ccc3O)C3OC(C)(C)OC3C2O1 (configuration not stated),"inconclusive [inhibitor, single point]",
Cc1ccc(S(=O)(=O)CNC(=S)c2cccc(C)c2)cc1,"inconclusive [inhibitor, single point]",
Cc1ccc(NC(=O)/C=C/c2ccc([N+](=O)[O-])s2)cc1,"inconclusive [inhibitor, full curve]",
Cn1c(N)c(C(C[N+](=O)[O-])c2c(F)cccc2Cl)c(=O)n(C)c1=O (configuration not stated),"inconclusive [inhibitor, single point]",
c1ccc(-c2c[n+]3c(n2-c2ccccc2)SCC3)cc1,,inactive: -7.53%
COc1c(OC(C)=O)ccc(/C=C/c2ccc3ccccc3n2)c1[N+](=O)[O-],"inconclusive [inhibitor, single point]",
O=C(Nc1ccncc1)c1ccc2c(c1)C(=O)N(C1CCCCC1)C2=O,active: 11.2 µM,
CC(=O)Nc1ccc(S(=O)(=O)NCCOc2ccc(Cl)cc2C)cc1,active: 5.01 µM,
c1ccc(C2C3=C(Nc4ncnn42)c2ccccc2CCC3)cc1 (configuration not stated),"inconclusive [inhibitor, single point]",
CCOC(=O)N1CCN(S(=O)(=O)c2ccc(C(=O)Nc3sc4c(c3C(N)=O)CCN(CC)C4)cc2)CC1,"inconclusive [inhibitor, single point]",
CC1CCCC(NC(=O)NC(=O)CCl)C1C (configuration not stated),active: 5.01 µM,
Cc1ccc(SC[C@H](c2ccccc2)N2CCN(C)CCC2=O)cc1,,inactive: 25.8%
OCCC1CN(Cc2cccn2-c2nccs2)CCN1Cc1ccccc1 (configuration not stated),,inactive: 7.89%
Cc1cccc(Cn2c(O)c(N=NC(=S)Nc3ccccc3F)c3ccccc32)c1,active: 5.01 µM,
N#Cc1cnn2c1nc(N1CCCCC1)c1ccccc12,,inactive: -5.45%
COCc1cc(CN2CCCC2)c(O)c2ncccc12,active: 8.91 µM,
O=C(O)CNC(=O)c1ccc(NC(=O)/C(=C/c2ccccc2)NC(=O)c2ccccc2Br)cc1,,inactive: -4.48%
COc1ccc(S(=O)(=O)N2CCCCCC2)cc1N(C)S(=O)(=O)c1ccc(C)cc1,"inconclusive [inhibitor, single point]",
CCOc1ccc(-c2c(C(=O)N/N=C/c3ccc(C)o3)nnn2-c2nonc2N)cc1,active: 10 µM,
CCN(Cc1cc(=O)n2ccsc2n1)Cc1nc2ccccc2c(=O)[nH]1,active: 10 µM,

Structure (SMILES),Potency,"activity, negative = inhibition"
CC(C)CN1C(=O)c2ccc(C(=O)Nc3nccs3)cc2C1=O,"inconclusive [inhibitor, single point]",
CC1=NN(c2ccc(Cl)cc2)C(=O)/C1=C\c1cccn1-c1ccc(S(N)(=O)=O)cc1,"inconclusive [activator, single point]",
O=C1CC(SCc2nc3ccccc3[nH]2)C(=O)N1c1cccc(F)c1 (configuration not stated),active: 14.1 µM,
COc1ccc2nc(Cl)c(C3CC(c4ccco4)=NN3C(=O)CCC(=O)O)cc2c1 (configuration not stated),"inconclusive [activator, single point]",
CCN(CC)C(=O)C1CCN(S(=O)(=O)c2ccc(C3CNC(=O)C3)cc2)CC1 (configuration not stated),,inactive: -0.127%
Cc1nc2ccccc2c(C)c1C(=O)c1ccc(F)cc1,,inactive: 10.9%
COc1ccc(CC2S/C(=N/N=C/c3ccccc3O)NC2=O)cc1 (configuration not stated),"inconclusive [inhibitor, single point]",
N#Cc1ccc(C2=NC(C(F)(F)F)(C(F)(F)F)c3c(n(Cc4ccco4)c(=O)[nH]c3=O)N2)cc1,"inconclusive [inhibitor, single point]",
O=c1c2sc(-c3ccccc3)cc2nc2n1CCC2,"inconclusive [inhibitor, partial curve]",
CC(C1CC2CCC1C2)n1c(COc2ccccc2F)nnc1SCC(N)=O (configuration not stated),"inconclusive [inhibitor, single point]",
O=C(NC(=S)Nc1ccc(CN2CCOCC2)cc1)c1ccc([N+](=O)[O-])cc1Cl,"inconclusive [inhibitor, single point]",
CCC1=[N+](CC(=O)c2ccc(C)cc2)CCn2c(C)ccc21,"inconclusive [inhibitor, single point]",
CCn1c(CNC(=O)COc2ccc(C(C)C)cc2)nnc1SCC(=O)Nc1ccccc1F,"inconclusive [inhibitor, single point]",
Cc1ccc(NC(=S)N2CCCCCC2)c(C)c1,active: 17.8 µM,
Cc1ccc(CN(C(=O)CNC(=O)c2cccs2)C(C(=O)NCC2CCCO2)c2ccccc2)cc1 (configuration not stated),"inconclusive [inhibitor, single point]",
CCc1ccc(-c2ccc(C(=O)C(F)(F)F)[nH]2)cc1,"inconclusive [inhibitor, single point]",
O=C(OCn1nnc2ccccc2c1=O)c1ccc(N2CCOCC2)c([N+](=O)[O-])c1,"inconclusive [inhibitor, single point]",
CC1CC(C)(C)CC2(C1)NC(=O)N(CC(=O)Nc1ccc(N3CCCCC3)cc1)C2=O (configuration not stated),,inactive: -6.86%
CCOc1ccc(NC(=O)CN2CCN(CC(=O)Nc3ccc(Cl)c(C(F)(F)F)c3)CC2)cc1,"inconclusive [inhibitor, single point]",
COc1ccc(NC(=O)N2CCC3(CC2)CCN(C(=O)c2cnccn2)CC3)cc1,,inactive: 1.34%
CCOC(=O)C(C(=O)NCc1ccc(F)cc1)c1ncc(C(F)(F)F)cc1Cl (configuration not stated),"inconclusive [inhibitor, single point]",
O=C(c1csnn1)N1CCC2(CCN(Cc3ccccc3)CC2)CC1,,inactive: 1.8%
CC(C)c1ccc(C(=O)CSc2n[nH]c(-c3ccncc3)n2)cc1,"inconclusive [inhibitor, single point]",
CC(Oc1ccc(Br)cc1)c1nc2c3ccccc3nc(=S)n2[nH]1 (configuration not stated),active: 1.26 µM,
